For experiment [1], the target named is PCNA, in the GST pull-down experiments (UniProt P12004). Kind of experiment: pull-down; GST pull-down competition: increasing amounts of His-NEDD8 or of Ub added; complexes with PCNA detected (Fig. 5G).
Experiment [2] concerns the target HA-PCNA (wild-type plasmid of PCNA) (UniProt P12004). Kind of experiment: co-IP; HA-PCNA or HA-PCNA K164R transfected into HCCLM3 and MHCC97H cells (stably expressing His-NEDD8, blank vector or shNEDD8); immunoprecipitation with anti-HA, immunoblot.
Experiment [3] has as its target HA-PCNA K164R (mutant plasmid of PCNA at the lys164 site) (UniProt P12004). The experiment is described as above.
Experiment [4] has as its target PCNA, in the GST pull-down experiments (UniProt P12004). Put plainly: pull-down; GST pull-down of NUB1 and PCNA, HCCLM3 and MHCC97H cells (Supplementary Fig. 2B); which protein carried GST not told.
The target of experiment [5] is Proliferating cell nuclear antigen (PCNA), endogenous (human (endogenous in HCCLM3 and MHCC97H)) (UniProt P12004). Kind of experiment: co-IP; total cell lysates of HCCLM3 and MHCC97H cells; primary antibody and Protein A/G PLUS-Agarose 12 h at 4 °C, three washes with lysis buffer, immunoblot (Supplementary Fig. 2A).
Experiment [6] has the same target. Put plainly: co-IP; endogenous NEDD8 and PCNA in HCCLM3 and MHCC97H cell lysates; primary antibody and Protein A/G PLUS-Agarose 12 h at 4 °C, immunoblot.

Sequences of proteins named here, by UniProt entry; tags and fusion partners are left off. A change or cut given only in a name is not applied to a line headed by its entry. Residues count along the entry.
UniProt P12004: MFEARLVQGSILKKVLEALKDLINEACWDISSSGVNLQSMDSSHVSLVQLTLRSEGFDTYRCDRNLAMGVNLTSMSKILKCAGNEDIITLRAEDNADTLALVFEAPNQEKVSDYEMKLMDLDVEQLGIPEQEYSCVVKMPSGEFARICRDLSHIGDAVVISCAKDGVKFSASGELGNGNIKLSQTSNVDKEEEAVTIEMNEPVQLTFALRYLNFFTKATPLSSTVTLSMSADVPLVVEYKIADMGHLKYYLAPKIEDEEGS
UniProt Q15843, residues 1-76: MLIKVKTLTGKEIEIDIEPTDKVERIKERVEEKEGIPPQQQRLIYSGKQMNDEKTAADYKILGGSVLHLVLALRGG
UniProt Q9Y5A7: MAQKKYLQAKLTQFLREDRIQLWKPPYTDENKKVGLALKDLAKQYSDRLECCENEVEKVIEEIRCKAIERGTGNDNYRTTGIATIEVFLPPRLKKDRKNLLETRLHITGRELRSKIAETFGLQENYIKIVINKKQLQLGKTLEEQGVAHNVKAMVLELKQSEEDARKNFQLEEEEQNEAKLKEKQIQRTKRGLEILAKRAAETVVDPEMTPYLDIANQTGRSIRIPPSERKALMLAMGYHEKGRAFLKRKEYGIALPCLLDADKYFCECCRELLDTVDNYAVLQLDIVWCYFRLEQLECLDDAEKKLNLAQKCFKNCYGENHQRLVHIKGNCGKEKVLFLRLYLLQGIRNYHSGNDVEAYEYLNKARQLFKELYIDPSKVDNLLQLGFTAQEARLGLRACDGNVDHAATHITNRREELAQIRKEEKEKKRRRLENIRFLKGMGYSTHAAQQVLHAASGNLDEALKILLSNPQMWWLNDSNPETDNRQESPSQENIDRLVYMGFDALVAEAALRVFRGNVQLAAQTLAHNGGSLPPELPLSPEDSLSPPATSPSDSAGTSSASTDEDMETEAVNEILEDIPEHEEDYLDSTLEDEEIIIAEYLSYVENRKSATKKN

Results are given in words; binding and its absence hold for the method and conditions named. In cells and extracts the contact can be indirect. Some results given as binding are weak or reduced against the parent protein; the word gives no strength.

Consider “His-NEDD8, added in the GST pull-down competition (from UniProt Q15843 1-76)”, for which, in experiment [1], the binding result was “binds”.
Regarding “His-NEDD8, stably expressed in HCC cells (from UniProt Q15843 1-76)”, the binding result in experiment [2] is “binds”; in experiment [3], “no binding”.
On to “NUB1, in the GST pull-down with PCNA (from UniProt Q9Y5A7 1-615)”, for which the binding entry in experiment [4] is reported as “no binding”.
In the case of “Negative regulator of ubiquitin-like protein 1 (NUB1), in the co-IP with PCNA (from UniProt Q9Y5A7 1-615)”, the binding entry in experiment [5] is reported as “no binding”.
“Neural precursor cells expressed developmentally downregulated 8 (NEDD8), endogenous (from UniProt Q15843 1-76)”: the figures for the binding result in experiment [6] and in experiment [3] were “binds” and “no binding”, respectively.
